For the assay, the system named is CD2F1 mice, L1210 leukemia ip, survival T/C. The assay can be described thus: NCI In Vivo Anticancer Drug Screen. Data for tumor model L1210 Leukemia (intraperitoneal) in CD2F1 (CDF1) mice. Conditions: higher = longer survival. How it is done: The antitumor activity of compounds was measured in mice bearing transplantable tumors. Survival or tumor size were measured and the results are expressed as the measurement made in the treated group (T) divided by the measurement made in the vehicle treated control group (C). The tumor model used in this assay is L1210 Leukemia (intraperitoneal) in CD2F1 (CDF1) mice

Inconclusive results and toxic doses are left out. Some entries of the source have several records that differ or are many. The list is limited to them. An entry can have further records. Results that share an entry are repeated measurements across runs, samples, wells, individuals or studies. Brackets tell where a record comes from. The letters are not those of the source and start again with each entry. Brackets with × say how often a value occurs here.

As to `CC(=O)OCC1OC(N2CN=C(N)NC2=O)C(OC(C)=O)C1OC(C)=O` (stereo not given), the T/C (endpoint: mean survival time, dose: 200.0 mg/kg/injection, schedule: Q01DX009 (ip), vehicle: saline) was 117 % of control and 160 % of control.
Regarding `CC(O)C(=O)O.CCCCOC(=O)CC(O)(CC(=O)OCCCC)C(=O)OCCCC.[Cl-].[Cl-].[NH2-].[NH2-].[Pt+4]`, the T/C (endpoint: mean survival time, dose: 50.0 mg/kg/injection, schedule: Q04DX003 (ip), vehicle: Klucel (hydroxypropylcellulose) (HPC)) was 119 % of control, 191 % of control [sample A] and 113 % of control (2×) [sample B].
As to `CS(=O)(=O)CS(=O)(=O)OCCF`, under “endpoint: median survival time, dose: 6.25 mg/kg/injection, schedule: Q01DX009 (ip), vehicle: saline”, the T/C was 116 % of control and 170 % of control.
For the molecule `S=c1nc[nH]c2nc[nH]c12`, where the note is “endpoint: mean survival time, dose: 200.0 mg/kg/injection, schedule: Q04DX003 (ip), vehicle: alkali diluted with water”, the T/C was 101 % of control and 174 % of control.
Consider `CCNC(=O)OCc1c(COC(=O)NCC)c(-c2ccc(Cl)c(Cl)c2)n2c1CCC2`, for which the T/C (endpoint: mean survival time, dose: 3.12 mg/kg/injection, schedule: Q01DX009 (ip), vehicle: saline with Tween-80) was 116 % of control, 120 % of control, 164 % of control.
Consider `CC(C)(C[NH-])C[NH-].[Cl][Pt+2]([Cl])([Cl])[Cl]`, for which the T/C (endpoint: median survival time, dose: 3.2 mg/kg/injection, schedule: Q04DX003 (ip), vehicle: water) is recorded as 98 % of control, 102 % of control, 172 % of control.
As for `CCC1(O)C(=O)OCc2c1cc1n(c2=O)Cc2cc3cc4c(cc3nc2-1)OCO4` (stereo not given), the T/C (endpoint: median survival time, dose: 8.0 mg/kg/injection, schedule: Q04DX002 (ip), vehicle: saline with Tween-80) is 110 % of control and 186 % of control.
In the case of `CNC(=O)c1ccccc1N=NN(C)C`, the T/C (endpoint: mean survival time, dose: 150.0 mg/kg/injection, schedule: Q01DX009 (ip), vehicle: Klucel (hydroxypropylcellulose) (HPC)) is listed as 112 % of control, 120 % of control, 152 % of control.
Turning to `Cc1cn(C2CC3[O][Sn]([c]4ccccc4)([c]4ccccc4)[O]CC3O2)c(=O)[nH]c1=O` (stereo not given), the T/C is reported as 96 % of control, 105 % of control, 156 % of control (endpoint: mean survival time, dose: 1.56 mg/kg/injection, schedule: Q01DX005 (ip), vehicle: other) and 101 % of control, 105 % of control, 170 % of control (endpoint: mean survival time, dose: 3.13 mg/kg/injection, schedule: Q01DX005 (ip), vehicle: other).
For the molecule `COc1ccc(OC)c(NC(=O)N2CCCC(C)C2)c1` (stereo not given), the T/C (endpoint: mean survival time, dose: 200.0 mg/kg/injection, schedule: Q01DX009 (ip), vehicle: other) was 95 % of control and 158 % of control.
As to `NCc1cc(O)c(O)c(O)c1`, the T/C (endpoint: median survival time, dose: 75.0 mg/kg/injection, schedule: Q01DX005 (ip), vehicle: saline) was 121 % of control and 151 % of control.
In the case of `O=C(O)c1ccc(C(=O)O)o1.[NH-]C1CCCCC1[NH-].[Pt+2]`, the T/C (endpoint: mean survival time, dose: 10.0 mg/kg/injection, schedule: Q04DX003 (ip), vehicle: dextrose) is 120 % of control and 178 % of control.
Consider `CCN(CC)CCNc1ccc(C)c2sc3ccccc3c(=O)c12`, for which the T/C (endpoint: median survival time, dose: 100.0 mg/kg/injection, schedule: Q01DX009 (ip), vehicle: saline) was 111 % of control, 150 % of control, 186 % of control.
In the case of `CCOC(=O)c1ccc(NN=NCCF)cc1`, for the setting “endpoint: median survival time, dose: 25.0 mg/kg/injection, schedule: Q01DX009 (ip), vehicle: distilled water + Tween-80”, the T/C is 91 % of control (2×) and 186 % of control.

For the origin of these results see PubChem BioAssay AID256 (DTP/NCI, 2004).
